Over roughly 33,000 sequences, “E-score (-0.5 to 0.5)” has its median near -0.01; the highest 2% begin near 0.26. The list shows a part of the results.
biological target: Ste12 (UniProt P13574); assay: PBM E-score (8-mer binding enrichment) (E-score (-0.5 to 0.5)); higher = stronger / more preferred TF binding; most listed sequences are background and not binding sites; settings: protein concentration: 200 nM; construct: GST-DNA-binding domain
Method in brief: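 Full-length yeast transcription factors or their DNA-binding domains, GST-tagged and expressed with PURExpress, were applied at about 100-200 nM to universal all-10-mer Agilent arrays. These arrays had been made double-stranded by primer extension on fresh or once-stripped slides. Detection used fluorescent anti-GST, normalisation used masliner, and E-scores for ungapped eight-base words pooled with reverse complements came from the Universal PBM Analysis Suite.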

Row | Sequence | PBM E-score
1 | CGATGCAG | 0.0009
2 | GCCTCAAC | -0.103
3 | TAATGCCA | 0.0259
4 | ACTTATCA | 0.111
5 | ATAAGGGG | 0.0195
6 | TCTATCCA | -0.0703
7 | TAGACACA | -0.292
8 | AGTTGTCA | 0.16
9 | AGCTATTG | -0.173
10 | CAGGGGGG | -0.184
11 | AGGTGTTC | -0.0573
12 | CCTACCGC | -0.092
13 | CAGAGGGA | -0.24
14 | CGGAACAC | 0.144
15 | AGTCGTTG | -0.295
16 | ATACGCGC | 0.0383
17 | ATGTCGCA | 0.184
18 | GCGATATA | -0.0904
19 | AAGAAGAA | 0.123
20 | TACATAGA | 0.0766
21 | AGCCTCCG | -0.239
22 | CTCTACGA | -0.171
23 | CCACGCTA | -0.182
24 | CAGTGTCA | 0.0763
25 | CCGTTTCA | 0.46

Row | Sequence | PBM E-score
26 | ACAGGTTG | 0.0928
27 | ATGGAAAG | 0.141
28 | GCAACCGC | -0.184
29 | ACGCAAGA | -0.0677
30 | GATTGGAA | 0.0582
31 | GATACTAA | 0.204
32 | AAGTCATA | 0.149
33 | AGAGGGGA | -0.0217
34 | GTCTCACA | 0.238
35 | AACCGGCG | 0.247
36 | CCATCCTC | -0.204
37 | CAAAGATG | 0.0187
38 | TCCTCGCA | 0.0289
39 | AACTTTGA | 0.218
40 | AGGAAAGA | 0.0338
41 | ACCCGTCG | -0.231
42 | CGCATCTC | -0.0954
43 | AGCACTCG | -0.119
44 | AGTCCTGG | -0.153
45 | ACGGATAA | 0.117
46 | CCACTTCC | 0.0667
47 | AGTTTGAC | 0.0398
48 | ATCAAGAC | -0.0152
49 | CTGCTGCA | -0.0333
50 | CGCAGAAC | -0.122

Row | Sequence | PBM E-score
51 | CATTTCGG | -0.00058
52 | GAAACACA | 0.408
53 | GACCCATC | 0.0104
54 | CGCGGAAA | 0.136
55 | CAGCGACA | -0.0114
56 | AATTAGAG | 0.0381
57 | AAAAAGCT | 0.116
58 | CTCACTAC | 0.00581
59 | CTAGTTGA | 0.175
60 | CCCTGTAA | 0.0396
61 | CCTCGTCA | 0.13
62 | ACTCAGTG | -0.0704
63 | AGTACATA | -0.182
64 | GCAGTTCC | 0.025
65 | ATTCTCAA | 0.252
66 | CAGCTTGA | 0.0235
67 | AGTCTAAG | 0.0673
68 | ATATATGG | 0.0448
69 | ACCATATC | -0.0602
70 | AGGTTAAA | 0.256
71 | CGAGGGCG | -0.0698
72 | ACACAGAC | -0.0967
73 | TCCTCAAA | 0.00931
74 | CGCTCCCC | -0.213
75 | ACGATTCA | -0.0523

Row | Sequence | PBM E-score
76 | AGGGTAAT | 0.0656
77 | AAATGCTA | 0.0451
78 | AGAATATA | 0.0722
79 | AACGGGCA | 0.0332
80 | AATGCATC | -0.141
81 | GGCCGACC | -0.123
82 | TATGCAAA | -0.039
83 | ACTTGTCC | -0.11
84 | ATTAGCGA | 0.0876
85 | ATTACATC | 0.0678
86 | CTAAGGTA | 0.0326
87 | AATACGTC | 0.086
88 | CTTACGCA | -0.146
89 | CGGAGGCC | -0.195
90 | CACTGGCA | -0.128
91 | TCATACAA | 0.112
92 | CCAGCTCG | -0.132
93 | ATATTCTG | 0.0613
94 | CTATTGAA | -0.0235
95 | CGGGGACC | -0.0441
96 | AAGCATTC | -0.096
97 | ATTCCGAG | 0.119
98 | ACGCTTAG | -0.167
99 | AATCGTCT | 0.0938
100 | AGACTACA | -0.32

Row | Sequence | PBM E-score
101 | CAGGTTCG | -0.00185
102 | AGTGTATG | 0.0334
103 | AGGCGTCA | -0.141
104 | TTAAGTAA | 0.189
105 | CTAAGGAC | -0.14
106 | ATTTATGC | 0.149
107 | GACAAAAC | 0.153
108 | AGCCGCAG | -0.239
109 | GAGAGACA | -0.156
110 | CGTAATCC | 0.0832
111 | ACTGTACC | -0.118
112 | AGGGGATC | -0.112
113 | ATTGTCAG | 0.0743
114 | AGCGACCC | -0.00194
115 | GTCTGCAA | -0.199
116 | AGGTATAT | 0.0165
117 | ACAAGCCT | -0.159
118 | TAGTGACA | -0.0814
119 | GGTAGCTA | -0.14
120 | AGATAAGG | 0.084
121 | GGGCCTGA | -0.106
122 | CACTCGCC | -0.0182
123 | AGGGCATG | -0.0523
124 | AGCCTACA | -0.105
125 | ACCGTGAA | -0.0267

Row | Sequence | PBM E-score
126 | ACCTCAGC | -0.11
127 | CTTGCCGA | -0.221
128 | CCGCACCG | -0.0232
129 | ATTAGCTC | -0.0874
130 | ATAACCTA | 0.166
131 | ACACGCTC | -0.0269
132 | GGGGCGCA | -0.0246
133 | ACATTGAA | 0.199
134 | ATCTAGCC | -0.297
135 | CAGACTCG | -0.218
136 | ATCTTCAA | 0.118
137 | AATATGAG | 0.11
138 | AAGGAATG | 0.118
139 | GACGAATA | 0.138
140 | CGTACAGA | -0.251
141 | ACTGATGG | -0.169
142 | AGTGCCAG | -0.121
143 | ACGTAGTA | -0.189
144 | ACGGGCGA | -0.0954
145 | ACAGGTGC | -0.14
146 | ATGTCATC | 0.0215
147 | CACGAAGA | 0.085
148 | CAACAGCC | -0.0347
149 | CCGGTACA | 0.0491
150 | ACGGCAGC | 0.144

Row | Sequence | PBM E-score
151 | CGTAGTGA | -0.213
152 | ACATACTC | -0.0469
153 | AATGTAGC | 0.126
154 | GACACCAC | -0.174
155 | AGATAAAT | 0.131
156 | AGGAGGGA | -0.0567
157 | GTTTCAAA | 0.47
158 | AGGTCGCA | -0.158
159 | GTCCGGAA | -0.0712
160 | ACTAGGCA | -0.129
161 | CATCGTGG | 0.0956
162 | ACCGTGGG | -0.0959
163 | TGCAGTAA | 0.0362
164 | ATTGGGTG | 0.222
165 | ATTTTGCC | 0.116
166 | ACAGAGAT | 0.0239
167 | CACGCACG | -0.19
168 | ATTTGCAA | 0.087
169 | ATCACTAC | -0.117
170 | TGTCTTAA | -0.0432
171 | AGTTCGGA | 0.0538
172 | AACACCGC | 0.0776

Source: the supplement of paper PMC3334620
